{"source": "PubChem BioAssay AID488969", "about": "(Vanderbilt High Throughput Screening Facility, 2010)", "note": "Over roughly 110,000 compounds, “z-score” has its median near -0.1; the highest 2% begin near 2. The list shows a part of the results."}
{"target": "Metabotropic glutamate receptor 8 (Rattus norvegicus) (UniProt P70579)", "sequence (P70579 whole entry, looked up)": "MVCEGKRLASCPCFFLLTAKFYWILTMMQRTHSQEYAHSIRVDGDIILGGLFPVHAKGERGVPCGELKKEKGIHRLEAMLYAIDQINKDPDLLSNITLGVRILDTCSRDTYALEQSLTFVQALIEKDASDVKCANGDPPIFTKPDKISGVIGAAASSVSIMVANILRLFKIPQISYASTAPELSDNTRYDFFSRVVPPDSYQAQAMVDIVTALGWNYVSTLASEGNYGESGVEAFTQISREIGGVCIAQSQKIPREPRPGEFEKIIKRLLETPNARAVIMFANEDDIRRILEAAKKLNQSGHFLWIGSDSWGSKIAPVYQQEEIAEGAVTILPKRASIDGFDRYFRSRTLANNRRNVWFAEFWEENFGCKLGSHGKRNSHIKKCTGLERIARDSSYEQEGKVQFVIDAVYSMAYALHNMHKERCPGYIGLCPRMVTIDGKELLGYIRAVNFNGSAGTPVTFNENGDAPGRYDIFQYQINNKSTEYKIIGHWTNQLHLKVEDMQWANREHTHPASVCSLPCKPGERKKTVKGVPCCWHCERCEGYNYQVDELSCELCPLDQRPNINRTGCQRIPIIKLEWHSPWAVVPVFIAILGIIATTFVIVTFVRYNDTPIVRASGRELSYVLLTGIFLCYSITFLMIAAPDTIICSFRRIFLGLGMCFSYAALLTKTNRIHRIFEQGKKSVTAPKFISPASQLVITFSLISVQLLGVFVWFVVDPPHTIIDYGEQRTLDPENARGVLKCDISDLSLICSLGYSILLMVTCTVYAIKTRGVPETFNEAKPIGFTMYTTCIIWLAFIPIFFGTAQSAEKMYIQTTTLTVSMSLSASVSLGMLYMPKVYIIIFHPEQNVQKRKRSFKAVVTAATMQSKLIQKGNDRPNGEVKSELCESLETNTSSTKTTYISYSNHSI", "test": "mGluR8 Gi/Go-coupled signaling modulation – cell-based, rat, thallium flux, HTS, primary screen (AID 488969)", "conditions": "HEK293 rat mGluR8, GIRK (G protein-gated inwardly rectifying potassium channel) thallium flux, FluoZin2; at 10 µM; stronger effect = higher value; submaximal glutamate (EC20) added with thallium"}
{"smiles": "COc1ccc(/C=C/C(=O)NCCCc2ccccc2)cc1", "z-score": -0.208}
{"smiles": "O=C(Oc1oc(-c2ccco2)nc1C=Nc1ccccc1)c1ccco1", "z-score": -0.618}
{"smiles": "O=c1[nH]n2c(=O)c3c([nH]c2c1N=Nc1cccc(C(F)(F)F)c1)CCCC3", "z-score": -1.04}
{"smiles": "CCOC(=O)C1CCCN(c2ncnc3c2[nH]c2cccc(OC)c23)C1", "note": "(stereo not given)", "z-score": -0.427}
{"smiles": "Cn1c(=O)c2c(-c3ccccc3F)c3c(nc2n(C)c1=O)-c1ccccc1C3O", "note": "(stereo not given)", "z-score": -0.644}
{"smiles": "CCN(CC)C(=O)c1c(NC(=O)c2ccccc2)sc(C)c1C", "z-score": 0.187}
{"smiles": "Brc1ccc(-c2cn3c(n2)CCc2ccc4cccnc4c2-3)cc1", "z-score": 0.098}
{"smiles": "O=C(Cn1nc(CNc2ccc(Cl)cc2)[n+]2c1CCCCC2)c1ccccc1", "z-score": -0.17}
{"smiles": "COc1ccc(C(=O)c2sc3nc(-c4ccccc4)ccc3c2N)cc1OC", "z-score": -0.757}
{"smiles": "COC(=O)C(O)(CC(=O)Nc1ccc(Cl)cc1F)C(F)(F)F", "note": "(stereo not given)", "z-score": -0.45}
{"smiles": "CN1CCN(S(=O)(=O)c2ccc(NC(=O)c3ccco3)cc2)CC1", "z-score": -0.12}
{"smiles": "COCCNC(=S)N1CCN(C(=O)C(=O)Nc2ccc(C(=O)OC)cc2)CC1", "z-score": -0.352}
{"smiles": "Cc1cccc(NC(=O)CSc2nnc(-c3cnccn3)n2Cc2ccco2)c1", "z-score": -0.341}
{"smiles": "Cc1cccc(N(CC(O)CN(C)C)S(=O)(=O)c2ccccc2)c1", "note": "(stereo not given)", "z-score": 0.0348}
{"smiles": "Cc1c(-c2ccccc2)sc(Br)c1C(=O)N1CCOCC1", "z-score": -1.13}
{"smiles": "O=S(=O)(c1ccc(OCC(O)CN2CCN(c3ccccc3)CC2)cc1)N1CCOCC1", "note": "(stereo not given)", "z-score": 0.569}
{"smiles": "N/C(=N\\OC(=O)c1ccc2ccccc2c1)c1ccc(Br)cc1", "z-score": -0.416}
{"smiles": "CC(=O)Nc1nnc(SCc2ccccc2F)s1", "z-score": 0.164}
{"smiles": "COc1ccc(OC)c(C2C3=C(COC3=O)Nc3cc4c(cc32)OCO4)c1", "note": "(stereo not given)", "z-score": -0.261}
{"smiles": "CC(C)NC(=S)N/N=C/c1c[nH]c2ccccc12", "z-score": -0.251}
{"smiles": "Clc1ccc(CSc2ncn(-c3ccccc3)n2)cc1", "z-score": -2.68}
{"smiles": "CCCCOc1ccc(S(=O)(=O)Nc2ccc(NC(C)=O)cc2)cc1", "z-score": -0.437}
{"smiles": "CN(C)S(=O)(=O)c1ccc(C(=O)Nc2ccccc2[N+](=O)[O-])cc1", "z-score": -0.419}
{"smiles": "Clc1ccc(/C=N/c2c(-c3ccc(Cl)cc3)nc3n2CCS3)cc1", "z-score": 0.0627}
{"smiles": "CC1CCCCN1C(=O)CSc1nc2ccsc2c(=O)n1Cc1ccccn1", "note": "(stereo not given)", "z-score": -0.531}
{"smiles": "Cc1ccc(C=Nc2ccccc2C#N)s1", "z-score": -0.272}
{"smiles": "Cc1ccccc1Nc1c([N+](=O)[O-])ccc2c1=NC1(CCCCC1)N=2", "z-score": -0.185}
{"smiles": "Cc1cc(C)c(C(=O)Nc2ccc(Br)c(C(F)(F)F)c2)c(C)c1", "z-score": -0.0864}
{"smiles": "Cn1c(SCC(=O)Nc2cccc(Br)c2)nnc1-c1cc2ccccc2o1", "z-score": -0.0895}
{"smiles": "CCOc1ccccc1N(CC(=O)Nc1ccc(S(=O)(=O)N2CCOCC2)cc1)S(=O)(=O)c1ccccc1", "z-score": -0.117}
{"smiles": "CCCC(=O)NCCc1nc2ccccc2n1CCC", "z-score": -0.347}
{"smiles": "O=C(c1ccc(COc2c(F)c(F)cc(F)c2F)o1)N1CCN(c2ccccc2)CC1", "z-score": -0.0675}
{"smiles": "Cc1nn(Cc2ccccc2)c(C)c1C(=O)NCCN1C(=O)S/C(=C\\c2ccccc2)C1=O", "z-score": -0.302}
{"smiles": "Cc1cc(C)n2nc(NCc3cccc(Br)c3)nc2n1", "z-score": -0.295}
{"smiles": "O=c1c2c3c(sc2ncn1Cc1ccc(F)cc1)CCC3", "z-score": -0.207}
{"smiles": "CCc1nnc(NC(=O)c2cccc(S(=O)(=O)N3CCN(c4ccccc4)CC3)c2)s1", "z-score": 0.00976}
{"smiles": "CCOc1ccc(C(=O)Nc2cccc([N+](=O)[O-])c2)cc1Br", "z-score": -0.188}
{"smiles": "Cc1onc(-c2c(F)cccc2Cl)c1C(=O)Nc1cccc2nsnc12", "z-score": 2.67}
{"smiles": "Cc1sc2ncnc(-n3cnc4ccccc43)c2c1C", "z-score": -0.181}
{"smiles": "Cc1ccc(S(=O)(=O)Nc2cc(NC(=O)CN3CCOCC3)ccc2Cl)cc1", "z-score": -0.264}
{"smiles": "O=S1(=O)N=C(N2CCN(Cc3ccc4c(c3)OCO4)CC2)c2ccccc21", "z-score": -0.43}
{"smiles": "CC1CCN(CC(O)COc2cccc(F)c2)CC1", "note": "(stereo not given)", "z-score": 0.03}
{"smiles": "COC(=O)c1cn(NC(=O)c2cccc(F)c2)c(=O)c2ccccc12", "z-score": 0.69}
{"smiles": "CC1(C)CC(=O)C(C=NCCN2CCN(CCc3ccccc3)CC2)=C(O)C1", "z-score": 0.0369}
{"smiles": "COc1ccc(NC(=O)Nc2ccccc2OC)cc1", "z-score": 1.3}
{"smiles": "CCn1c(-c2nn(C)c(C)c2Cl)n[nH]c1=S", "z-score": -0.461}
{"smiles": "CCOC(=O)c1ccccc1NC(=O)C=C(C)C", "z-score": -0.595}
{"smiles": "N#Cc1nc(COc2ccccc2)oc1NCCCn1ccnc1", "z-score": -0.299}
{"smiles": "CCOC(=O)c1cc(S(=O)(=O)N2CCN(C(=O)OCC)CC2)cn1C", "z-score": -0.144}
{"smiles": "COC(=O)c1nn(-c2ccc(C)cc2)c2nnc(Cc3ccccc3)c(=O)n12", "z-score": -0.16}
{"smiles": "O=C(CCCC(=O)OCC(F)(F)C(F)F)Nc1ccc(NC(=O)CCCC(=O)OCC(F)(F)C(F)F)cc1", "z-score": -0.405}
{"smiles": "COc1ccc(C)cc1N(CC(=O)O)S(=O)(=O)c1ccc(C)cc1", "z-score": -0.321}
{"smiles": "COc1ccc(/C=C(\\C#N)c2nc3ccc(C)cc3[nH]2)cc1Oc1ccc(C(F)(F)F)cc1[N+](=O)[O-]", "z-score": -0.0769}
{"smiles": "Cc1ccc2cc(CN(CCCN3CCOCC3)C(c3nnnn3Cc3ccco3)C(C)C)c(=O)[nH]c2c1C", "note": "(stereo not given)", "z-score": -0.0138}
{"smiles": "CCOc1cc(S(=O)(=O)NCCc2ccc(OC)c(OC)c2)c(OCC)cc1-n1cnnn1", "z-score": -0.22}
{"smiles": "CC1CCCCN1C/C=C/c1ccccc1[N+](=O)[O-]", "note": "(stereo not given)", "z-score": -0.203}
{"smiles": "O=C1CC(c2c[nH]c3ccccc23)C(=O)N1c1ccccc1", "note": "(stereo not given)", "z-score": 0.0336}
{"smiles": "O=C(COc1ccc(Br)cc1)N1CCN(S(=O)(=O)/C=C/c2ccccc2)CC1", "z-score": -0.057}
{"smiles": "O=C(Cc1c(F)cccc1Cl)N1CCCC1", "z-score": 0.183}
{"smiles": "CCCc1nc(N2CCCC2)c(C#N)c2c1CCCC2", "z-score": -0.133}
{"smiles": "NC(=O)C1CCN(c2ncnc3c(-c4ccccc4)nsc23)CC1", "z-score": -0.459}
{"smiles": "COc1ccccc1OCCCn1c(=O)sc2ccccc21", "z-score": -0.167}
{"smiles": "O=C(Nc1ncc(Cc2ccccc2Cl)s1)c1ccc(-c2cccc([N+](=O)[O-])c2)o1", "z-score": -0.173}
{"smiles": "COc1ccc(/C=N/NC(=O)c2ccccc2O)cc1CSc1ccccn1", "z-score": 0.779}
{"smiles": "O=C(O)CN=C1NC2(CCCCC2)Cc2ccccc21", "z-score": 0.0399}
{"smiles": "Cc1cc(C)n2nc(-c3cccnc3)nc2n1", "z-score": 0.012}
{"smiles": "CC(=O)Cn1c(C(F)(F)F)nc2ccccc21", "z-score": 0.0143}
{"smiles": "Cc1cc(C)cc(CC(Cc2nc3ccccc3[nH]2)c2nc3ccccc3[nH]2)c1", "note": "(stereo not given)", "z-score": 0.00285}
{"smiles": "C=CCSc1n[nH]c(-c2ccc(OCCC)cc2)n1", "z-score": 0.93}
{"smiles": "CCOC(=O)c1nnc(-c2ccccc2)nc1NCc1ccccc1", "z-score": -0.476}
